Measurements reported in PubChem BioAssay AID1346428 (National Center for Advancing Translational Sciences (NCATS), 2018).
Where “and” joins values, the source holds several entries; their conditions need not be identical. Identical values can stand only once. The campaign covered roughly 48,000 compounds. About 1,200 (2.5%) were called active. Roughly 2% stayed inconclusive and do not appear here.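 Rule for the calls: active = activation of at least 60% and not above a set upper limit (about 1 call in 100 departs from these limits); inconclusive = activation of 40% to 60%, or above that upper limit; inactive = activation under 40%.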 This is one part of the list. The source holds several records for some structures; these can differ, active in one and inactive in another.

The compounds below were run against Probable G-protein coupled receptor 32 (Homo sapiens) (UniProt O75388) (assay: qHTS for Agonists of Human Resolvin D1 Receptor DRV1). Conditions: CHO-K1 GPR32 beta-arrestin PathHunter luminescence, 90 min; at 76.9 µM; stronger effect = higher value; zero percent set by DMSO-only wells.
Outline: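 GPR32 activation in stably transfected CHO-K1 cells, detected as beta-arrestin recruitment by enzyme-fragment complementation. Compound exposure: 90 min, 37 °C.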
Note: 0% is about no effect.

Chain of UniProt O75388 (O75388 whole entry, looked up, the tested form may be a part): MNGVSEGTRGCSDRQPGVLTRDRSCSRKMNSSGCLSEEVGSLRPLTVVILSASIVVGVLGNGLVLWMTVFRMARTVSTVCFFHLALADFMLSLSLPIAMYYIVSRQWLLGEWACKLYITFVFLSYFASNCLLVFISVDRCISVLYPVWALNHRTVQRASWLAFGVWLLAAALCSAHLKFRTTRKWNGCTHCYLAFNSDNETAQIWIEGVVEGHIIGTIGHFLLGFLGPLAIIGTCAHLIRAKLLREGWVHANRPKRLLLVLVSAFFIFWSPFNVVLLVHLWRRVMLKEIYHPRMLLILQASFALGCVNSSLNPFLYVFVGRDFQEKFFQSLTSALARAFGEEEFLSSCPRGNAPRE

SMILES | activation
O=C(CCS(=O)(=O)c1cc(Br)cc2c1N(C(=O)C1CC1)CC2)Nc1ccc(C(F)(F)F)cc1 | inactive: -8.56%
COc1cccc(CNC(=O)CN2C(=O)COc3ccc(S(=O)(=O)Nc4ccccc4)cc32)c1 | inactive: 2.74%
COc1ccc(-c2nc(Cn3c(SCc4ccccc4F)nc4ccncc43)c(C)o2)cc1OC | inactive: -12.2%
O=C(Nc1ccc(Cl)cc1)c1cc(S(=O)(=O)N2CCc3ccccc32)ccc1F | inactive: -18.8%
CCOc1ccc(C(=O)Nc2cc(-c3cn4cccnc4n3)ccc2C)cc1OCC | inactive: -4.14%
COc1ccc(CCNC(=O)c2c(C)oc3ncn(CC(C)C)c(=O)c23)cc1OC | inactive: -15.1%
CCn1cc(C(=O)NCCc2ccc(C)cc2)c(=O)c2cc(S(=O)(=O)N3CCCCC3)ccc21 | inactive: -1.01%
Cc1cc(C)cc(NC(=O)C2CCC(CNS(=O)(=O)c3ccc4c(c3)C(C)(C)C(=O)N4C)CC2)c1 (stereo not drawn) | inactive: -15.8%
CCOc1ccc(Br)cc1CNCCSc1nnnn1-c1ccccc1 | inactive: 21.1%
CCc1ccccc1NC(=O)CN1C(=O)c2cccnc2Oc2ccc(Cl)cc21 | inactive: -24.8%
CCc1ccc(NC(=O)c2nn(-c3ccc(C)cc3)c(=O)n(C)c2=O)cc1 | inactive: -9.99%
COC(=O)NCc1c(C)nn(-c2ccccc2)c1-n1cccc1 | inactive: 1.1%
Cc1ccc(C)c(NC(=O)C(=O)NCCc2csc3nc(-c4ccccc4C)nn23)c1 | inactive: -11.6%
COc1ccc(CNC(=O)c2cc3c(s2)-c2c(C)cccc2OC3)cc1 | inactive: 48%
CNC(=O)c1sc2ncccc2c1-n1cccc1 | inactive: -6.16%
CCCS(=O)(=O)N1CC(=O)N(c2ccccc2C)C(C)(C(=O)NC2CCCC2)C1 (stereo not drawn) | inactive: 4.06%
Cn1c(=O)n(-c2cccc(Cl)c2)c(=O)c2sc3ccccc3c21 | inactive: -0.743%
Cc1cc(NC(=O)Cn2nc(C)n3cccc3c2=O)ccc1Br | inactive: -21.4%
CCOC(=O)N1CCC2(CC1)OC(=O)C(C)=C2C(=O)NCc1cccc(OC)c1 | inactive: -7.48%
COc1ccc(NC(=O)CC2C(=O)N(c3ccc(C)cc3)C(=O)N2Cc2cccnc2)cc1 (stereo not drawn) | inactive: 0.554%
CCN1CCN(Cc2c(O)ccc3c(C)c(-c4ccccc4)c(=O)oc23)CC1 | inactive: -7.06%

SMILES | activation
Cc1cccc(-n2ncc(C(=O)NCc3ccccn3)c2C2CCN(C(=O)OC(C)(C)C)CC2)c1 | inactive: -14.6%
CCCCN1C(=O)CN(C2CCCCC2)C(=O)C1c1ccc(OC(C)C)c(OC)c1 (stereo not drawn) | inactive: -19.1%
COc1ccc(CNc2cc(-c3ccc(OC)cc3)nc3nncn23)cc1 | inactive: 23.2%
O=C(CSc1nc2c(c(=O)[nH]1)CCCC2)Nc1ccc(Br)cc1 | inactive: 31.7%
Cc1ccc(C)c(N2CCN(c3nc4ccccc4n4c(C)nnc34)CC2)c1 | inactive: -3.32%
Cc1ccc(NC(=O)C(c2ccccc2)N2Cc3ccccc3C2=O)cc1Cl (stereo not drawn) | inactive: -7.93%
CCCC(C(=O)OCCN(CC)CC)(c1ccccc1)c1ccccc1 | active: 60.2% and inactive: -17.3%
Cc1ccc(NC(=O)Cn2c(=O)n(CCC(=O)NCc3ccc4c(c3)OCO4)c(=O)c3sccc32)c(C)c1 | inactive: -13.4%
Cc1ccc(Cl)cc1NC(=O)CN1C(=O)COc2ccc(S(=O)(=O)N3CCOCC3)cc21 | inactive: -8.27%
CCCCn1cc(S(=O)(=O)c2ccc(F)cc2)c(=O)c2ccccc21 | inactive: -11.7%
COc1ccccc1CNC(=O)c1ccc(-c2nc(CS(=O)c3ccccc3)c(C)o2)cc1 (stereo not drawn) | inactive: 6.99%
O=C(Cc1ccc(NC(=O)N2CCCCc3ccccc32)cc1)NCc1ccccc1 | inactive: -5.05%
CCCCN(CCCC)CCNC(=O)c1cc(-c2cccnc2)nc2ccc(S(=O)(=O)N3CCC(C)CC3)cc12 | inactive: -7.2%
CCOc1ccc2nc(N3CCCC(C(=O)Nc4cccc(Cl)c4C)C3)sc2c1 (stereo not drawn) | inactive: -5.56%
CCc1cc2c(cc3c(=O)n(CC(=O)N4CCCCC4)ncn32)s1 | inactive: -21.3%
COc1ccc(N(Cc2cccs2)C(=O)COc2ccc(C(C)C)cc2)cc1 | inactive: -2.95%
COc1ccc(S(=O)(=O)c2c(Nc3ccc(C)cc3)sc(C(=O)c3ccc4c(c3)OCO4)c2N)cc1 | inactive: -21.8%
Cc1cc(F)ccc1NC(=O)C1CCCN(S(=O)(=O)c2ccc3c(c2)CCCC(=O)N3)C1 (stereo not drawn) | inactive: 5.8%
Cc1cnc2c(c1SCC(=O)Nc1ccc(F)cc1F)c(=O)n(C)c(=O)n2C | inactive: -2.01%
COc1ccc(Cn2c(SCC(N)=O)nc3c(sc4ccccc43)c2=O)cc1 | inactive: -1.72%
Cc1ccc2[nH]c3c(=O)n(CC(=O)N4CCN(c5cccc(C(F)(F)F)c5)CC4)ncc3c2c1 | inactive: 7.55%

SMILES | activation
CCOc1ccc(N2C(=O)N(Cc3c(F)cccc3Cl)c3ccccc3S2(=O)=O)cc1 | inactive: -18.3%
CN(C)c1ccc(CN(CC2CCCO2)C(=O)c2ccc(Br)cc2)cc1 (stereo not drawn) | inactive: -28.2%
Cc1ccc(-n2c(=O)c3ccc(C(=O)NCc4ccccc4Cl)cc3n(CC(=O)Nc3cccc(F)c3)c2=O)cc1 | inactive: -17.2%
Cc1ccc2[nH]c(CSc3nnc(COc4ccccc4C)n3C)cc(=O)c2c1 | inactive: 17.4%
COc1cccc(CNC(=O)CN2C(=O)CSc3c2c(C)nn3-c2ccccc2)c1 | inactive: -7.72%
O=C(COCc1cc(-c2cccs2)on1)Nc1ccc(OC(F)(F)F)cc1 | inactive: -10.1%
CC(C)NC(=O)c1ccc(C=O)cc1 | inactive: -0.696%
CCCCOc1ccc(NC(=O)Cn2nnnc2-c2ccccc2F)cc1 | inactive: -7.43%
Cc1cc2c(cc1C)NC(CC(=O)Nc1ccccc1SC(F)(F)F)C(=O)N2 (stereo not drawn) | inactive: -30.4%
COc1ccc2ncc3c(-c4ccc(C)c(C)c4)nn(CC(=O)NC4CCCCC4)c3c2c1 | inactive: -0.499%
COc1cc(OC)c(NC(=O)Cn2cnc3sc(C)c(S(=O)(=O)N4CCN(C)CC4)c3c2=O)cc1Cl | inactive: -0.551%
Cc1ccc(S(=O)(=O)c2nc(-c3ccco3)oc2SCC(C)C)cc1 | inactive: -37.2%
CN1CCC[C@H]1c1cccnc1 | inactive: -3.11%
Cc1cc2ccccc2n1CCNC(=O)c1cccc(Cl)c1 | active: 116%
COc1ccc(CNC(=O)CC(c2ccc(OC)c(OC)c2)N2Cc3ccccc3C2=O)cc1 (stereo not drawn) | inactive: 12.5%
CCOc1ccc(NC(=O)CSC2=Nc3ccccc3C3=NC(CC(=O)NCc4ccco4)C(=O)N23)cc1 (stereo not drawn) | inactive: -34.4%
COc1ccccc1CNc1ccc(-c2nc(-c3ccncc3)no2)cc1[N+](=O)[O-] | inactive: 18.1%
CC(C)c1ccc(NC(=O)c2cc(S(=O)(=O)NCc3ccccc3Cl)ccc2F)cc1 | inactive: -13.4%
COc1ccc(C)cc1NC(=O)Cn1c(=O)ccc2cc(S(=O)(=O)N3CCCC3)ccc21 | inactive: 29.1%
CCOc1cc(C(=O)N2CCc3c([nH]c4ccccc34)C2c2ccccc2)cc(OCC)c1OCC (stereo not drawn) | inactive: -27.2%
Cc1ccc(N(CC(=O)Nc2ccc(C)c(F)c2)S(=O)(=O)c2c(C)n[nH]c2C)cc1 | active: 102%

SMILES | activation
N#Cc1c[nH]n2c(NC3CCCC3)c(-c3cccc(Cl)c3)nc12 | inactive: -18.1%
CCOC(=O)c1sc2ncn(CC(=O)Nc3ccc(C)cc3Br)c(=O)c2c1C | inactive: 2.56%
COc1ccccc1-n1c(/C=C/c2c(C)n(C)c3ccccc23)nc2ccccc2c1=O | inactive: -32.6%
CCOc1ccc(OCC(=O)Nc2nnc3n2CCS3)cc1 | inactive: -6.97%
COc1cccc(NC(=O)c2cnn(-c3ccccc3)c2-n2cccc2)c1 | inactive: -9.72%
CCc1ccc(Sc2cc(C(=O)NC(C)CC)c3ccccc3n2)cc1 (stereo not drawn) | active: 74.7%
COc1ccc(-c2noc(CSc3nnc(-c4ccncc4)n3-c3ccc(C)cc3)n2)cc1 | inactive: 5.98%
CCOc1ccc(Sc2cc(C(=O)NCCc3ccccc3)c3ccccc3n2)cc1 | inactive: -23.1%
CCOc1nc(NC(=O)NS(=O)(=O)Oc2ccccc2)nc(-c2ccccc2)n1 | inactive: 1.95%
COc1cccc(CNC(=O)C2CCC(CNS(=O)(=O)c3ccc(Br)s3)CC2)c1 (stereo not drawn) | inactive: 19.9%
CCOC(=O)C(Cc1c[nH]c2ccccc12)NC(=O)COc1ccc(Cl)c(C)c1 (stereo not drawn) | inactive: 6.58%
O=C(C1CCC(Cn2c(=O)c3sccc3n(Cc3cccc(F)c3)c2=O)CC1)N1CCCCC1 (stereo not drawn) | inactive: -28.5%
COc1ccc(NC(=O)c2c(C)oc3ccc(O)c(CN4CCC(C)CC4)c23)cc1 | inactive: 39.6%
COc1ccccc1Nc1nn2c(=O)c3ccc(C(=O)NCc4ccc(F)cc4)cc3nc2s1 | inactive: 17.7%
O=C(NCCc1ccccc1)C(=O)NCC(c1cccnc1)N1CCN(c2ccccc2F)CC1 (stereo not drawn) | inactive: 14.9%
CCN1CCN(C(c2ccc(F)cc2)c2c(O)cc(C)n(CCOC)c2=O)CC1 (stereo not drawn) | inactive: -13.1%
Cc1ccc(CNC(=O)C(=O)NCC(c2ccco2)S(=O)(=O)c2cccs2)cc1 (stereo not drawn) | inactive: -18.2%
COc1ccc(CCNC(=O)c2ccc(CS(=O)(=O)Cc3cccc(C)c3)o2)cc1OC | inactive: 22.3%
COc1ccc(C(=O)Nc2ccc(-c3cc4ccccc4oc3=O)c(C)c2)cc1OC | inactive: 30.9%
CC(C)CCNC(=O)C1CCN(C(=O)N2CCOc3ccc(Cl)cc32)CC1 | inactive: -1.2%
